Measured values: the RNAGym collection of RNA variant scans (doi:10.1093/nar/gkz1192)
The source gives no read counts; variants with many changes may rest on few reads.

B1: CPEB3 Ribozyme (parent)
chain: UAACAGGGGGCCACAGCAGAAGCGUUCACGUCGCAGCCCCUGUCAGAUUCUGGUGAAUCUGCGAAUUCUGCUGUAUAUCUC

Variants of: B1
Assay: self-cleavage, relative activity (ratio to wild type); higher = more cleavage; in vitro, sequencing
Method in brief: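 Libraries of CPEB3 self-cleaving ribozyme mutants came from rounds of error-prone PCR and carried barcodes, which DNA sequencing matched to variants. In vitro transcription used T7 RNA polymerase at 37°C for 5 hours, with a further 15 min in DNase I before EDTA stopped the reaction; the ribozymes cleaved during both steps. The RNA was reverse transcribed with template switching and sequenced on Illumina. Relative activity is the cleaved/total read fraction of a variant divided by that of the unmutated ribozyme, averaged over three batches with at least 5 reads.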

Which self-cleavage does the source give for U26A U31A U41G U43C G55C A57G here?
Its self-cleavage is 0.09.

Which self-cleavage does the source give for U26A U31A U43C G55C A57G U78C here?
Its self-cleavage is 0.08.

With U26A U31A U51A as the variant, how does the self-cleavage read?
The self-cleavage was 0.54.

With U26A U31C A45G U66C as the variant, how does the self-cleavage read?
Its self-cleavage is 0.2.

For U26A U31C C34U A65G, which self-cleavage is on record?
Its self-cleavage is 0.14.

With U26A U31C C62U C68A as the variant, how does the self-cleavage read?
Its self-cleavage is 0.12.

For U26A U31C G33A U51A U58C U72A, which self-cleavage is on record?
The self-cleavage was 0.12.

With U26A U31C G46U as the variant, how does the self-cleavage read?
The self-cleavage was 0.16.

For U26A U31C G46U U76A, which self-cleavage is on record?
Its self-cleavage is 0.06.

For U26A U31C U41C A45U A57G, which self-cleavage is on record?
The self-cleavage was 0.16.

For U26A U31C U41C U72C, which self-cleavage is on record?
Its self-cleavage is 0.41.

With U26A U31C U43A A57U as the variant, how does the self-cleavage read?
The self-cleavage was 0.08.

Which self-cleavage does the source give for U26A U31C U43A A75U here?
Its self-cleavage is 0.16.

Which self-cleavage does the source give for U26A U31C U43C G46U U66A U80C here?
The self-cleavage was 0.12.

With U26A U31C U66C as the variant, how does the self-cleavage read?
Its self-cleavage is 0.17.

With U26A U31C U66G as the variant, how does the self-cleavage read?
Its self-cleavage is 0.18.

Which self-cleavage does the source give for U26A U31C U74C here?
Its self-cleavage is 1.03.

For U26A U31C U78C, which self-cleavage is on record?
Its self-cleavage is 0.65.

For U26A U31G A45G C50U U54C A56G A77G, which self-cleavage is on record?
Its self-cleavage is 0.08.

Which self-cleavage does the source give for U26A U31G C44A here?
The self-cleavage was 0.33.

With U26A U41A A64U as the variant, how does the self-cleavage read?
Its self-cleavage is 0.31.

Which self-cleavage does the source give for U26A U41A U43A U54C here?
The self-cleavage was 0.4.

With U26A U41A U51C A57G A64G as the variant, how does the self-cleavage read?
Its self-cleavage is 0.2.

Which self-cleavage does the source give for U26A U41A U51C U66C U67C here?
The self-cleavage was 0.32.

With U26A U41A U60A G73A U80A as the variant, how does the self-cleavage read?
The self-cleavage was 0.07.

With U26A U41C A45U G61A as the variant, how does the self-cleavage read?
The self-cleavage was 0.21.

Which self-cleavage does the source give for U26A U41C A56G here?
Its self-cleavage is 0.54.

With U26A U41C A56U as the variant, how does the self-cleavage read?
The self-cleavage was 0.42.

For U26A U41C A57G U72C, which self-cleavage is on record?
The self-cleavage was 0.59.

For U26A U41C A64U, which self-cleavage is on record?
The self-cleavage was 0.17.

For U26A U41C U43C, which self-cleavage is on record?
Its self-cleavage is 0.13.

With U26A U41C U43C U54A U60C U69C as the variant, how does the self-cleavage read?
Its self-cleavage is 0.14.

With U26A U41C U49C A64U A75U as the variant, how does the self-cleavage read?
The self-cleavage was 0.08.

With U26A U41C U58C U69A as the variant, how does the self-cleavage read?
Its self-cleavage is 0.15.

With U26A U41C U60C as the variant, how does the self-cleavage read?
The self-cleavage was 0.27.

With U26A U41C U76C U78C as the variant, how does the self-cleavage read?
The self-cleavage was 0.79.

For U26A U41G G55A, which self-cleavage is on record?
Its self-cleavage is 0.1.

With U26A U41G U54A U60A as the variant, how does the self-cleavage read?
The self-cleavage was 0.11.

For U26A U43A A47G U58C U60G A77G, which self-cleavage is on record?
The self-cleavage was 0.06.

With U26A U43A A57U U60A U72A as the variant, how does the self-cleavage read?
The self-cleavage was 0.09.

For U26A U43A C44U U60C U74C, which self-cleavage is on record?
Its self-cleavage is 0.42.

With U26A U43A U49A as the variant, how does the self-cleavage read?
The self-cleavage was 0.07.

With U26A U43A U54C as the variant, how does the self-cleavage read?
The self-cleavage was 0.19.

For U26A U43A U58C U66C G70A, which self-cleavage is on record?
The self-cleavage was 0.05.

Which self-cleavage does the source give for U26A U43A U66A U80A here?
Its self-cleavage is 0.1.

With U26A U43A U67C U69A as the variant, how does the self-cleavage read?
Its self-cleavage is 0.08.

For U26A U43C A47G U69C U72C, which self-cleavage is on record?
Its self-cleavage is 0.06.

Which self-cleavage does the source give for U26A U43C A47U A57G here?
Its self-cleavage is 0.42.

Which self-cleavage does the source give for U26A U43C U51C here?
Its self-cleavage is 0.87.

For U26A U43C U66C, which self-cleavage is on record?
The self-cleavage was 0.17.

For U26A U43C U66C U72C, which self-cleavage is on record?
The self-cleavage was 0.2.

With U26A U43C U80C as the variant, how does the self-cleavage read?
The self-cleavage was 0.42.

With U26A U48C U49C U51C A77G as the variant, how does the self-cleavage read?
The self-cleavage was 0.22.

For U26A U48C U51C U66C, which self-cleavage is on record?
Its self-cleavage is 0.03.

For U26A U48C U54C, which self-cleavage is on record?
The self-cleavage was 0.2.

With U26A U48C U60A as the variant, how does the self-cleavage read?
The self-cleavage was 0.23.

For U26A U48C U60C, which self-cleavage is on record?
The self-cleavage was 0.26.

For U26A U49A U69A, which self-cleavage is on record?
The self-cleavage was 0.16.

With U26A U49A U74A U78C as the variant, how does the self-cleavage read?
The self-cleavage was 0.77.

With U26A U49C A57C as the variant, how does the self-cleavage read?
The self-cleavage was 0.13.

For U26A U49C A57G U58C A64G, which self-cleavage is on record?
Its self-cleavage is 0.11.

With U26A U49C A64U A65G U69C as the variant, how does the self-cleavage read?
Its self-cleavage is 0.08.

Which self-cleavage does the source give for U26A U49C U51C A56G U72C here?
The self-cleavage was 0.65.

Which self-cleavage does the source give for U26A U49C U72C here?
Its self-cleavage is 0.22.

For U26A U49G A64U U67A, which self-cleavage is on record?
The self-cleavage was 0.08.

With U26A U51A A64G U69A as the variant, how does the self-cleavage read?
The self-cleavage was 0.18.

Which self-cleavage does the source give for U26A U51A A64U here?
Its self-cleavage is 0.62.

With U26A U51A U54C U67C as the variant, how does the self-cleavage read?
Its self-cleavage is 0.27.

Which self-cleavage does the source give for U26A U51C A64U U80A here?
Its self-cleavage is 0.16.

With U26A U51C C59G A64G U67A as the variant, how does the self-cleavage read?
Its self-cleavage is 0.14.

With U26A U51C U54A as the variant, how does the self-cleavage read?
The self-cleavage was 0.98.

For U26A U51C U67C, which self-cleavage is on record?
Its self-cleavage is 0.26.

For U26A U51C U76C, which self-cleavage is on record?
The self-cleavage was 0.95.

Which self-cleavage does the source give for U26A U51G U60A U72C here?
The self-cleavage was 0.29.

With U26A U54A A56G as the variant, how does the self-cleavage read?
The self-cleavage was 0.67.

Which self-cleavage does the source give for U26A U54A A56U A75G here?
The self-cleavage was 0.24.

With U26A U54A A56U U74A as the variant, how does the self-cleavage read?
The self-cleavage was 0.91.

For U26A U54A U66C, which self-cleavage is on record?
The self-cleavage was 0.38.

For U26A U54A U72A, which self-cleavage is on record?
The self-cleavage was 0.46.

Which self-cleavage does the source give for U26A U54C A75U C79G here?
The self-cleavage was 1.02.

With U26A U54C C62G C71U U74C U78C as the variant, how does the self-cleavage read?
The self-cleavage was 0.15.

With U26A U54C U80A as the variant, how does the self-cleavage read?
The self-cleavage was 0.94.

Which self-cleavage does the source give for U26A U54G U69A A75U here?
The self-cleavage was 0.14.

With U26A U58A U60A as the variant, how does the self-cleavage read?
The self-cleavage was 0.12.
